According to PubChem BioAssay AID360 (National Center for Advancing Translational Sciences (NCATS), 2006):
Hit rate of the full screen: of about 48,000 compounds, about 550 (1.1%) were called active. Not shown: some 4% with an inconclusive outcome. Cut-off read from the data, not from the text of the source: active = potency below about 15 µM; inconclusive = mostly about 16 µM to 33 µM; inactive = weaker than that. The list shows a part of the results.

These molecules were tested against Lysosomal acid glucosylceramidase (Homo sapiens) (UniProt P04062) (assay: Glucocerebrosidase). Conditions: purified enzyme, resorufin glucoside fluorescence (screen aimed at inhibitors), 20 min.
UniProt P04062, sequence (P04062 whole entry, looked up): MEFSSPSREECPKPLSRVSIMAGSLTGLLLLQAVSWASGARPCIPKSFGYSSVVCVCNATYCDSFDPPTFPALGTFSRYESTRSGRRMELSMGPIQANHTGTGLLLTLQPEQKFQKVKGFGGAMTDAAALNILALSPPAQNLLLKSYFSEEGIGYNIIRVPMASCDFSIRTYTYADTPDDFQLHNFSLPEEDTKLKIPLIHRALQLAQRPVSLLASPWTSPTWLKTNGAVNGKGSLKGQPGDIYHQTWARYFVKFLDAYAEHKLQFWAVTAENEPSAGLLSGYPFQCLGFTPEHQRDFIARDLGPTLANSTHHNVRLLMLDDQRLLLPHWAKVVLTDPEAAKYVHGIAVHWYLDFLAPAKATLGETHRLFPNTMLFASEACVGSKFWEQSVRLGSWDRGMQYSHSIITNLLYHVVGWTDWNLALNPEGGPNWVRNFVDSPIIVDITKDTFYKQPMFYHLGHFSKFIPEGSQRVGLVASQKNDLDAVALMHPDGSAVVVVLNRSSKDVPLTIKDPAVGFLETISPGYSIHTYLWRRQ
Procedure, shortened: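 Normal human glucocerebrosidase (0.2 nM final) was assayed with resorufin β-D-glucopyranoside (30 uM final) in 50mM citric acid/KH2PO4, 10mM sodium taurocholate, 0.01% tween-20, pH 5.9. Compounds were titrated; fluorescence (Ex 548, Em 600) read after 20 min at RT.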
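Note: the screen sought inhibitors.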
Potency is the fitted concentration of half-maximal effect.

Potency, inactive:
CC(NC(=O)c1cncc(Br)c1)c1ccc(S(N)(=O)=O)cc1 (configuration not stated) > 76.9 µM
CCc1nc(N[C@@H](Cc2c[nH]c3ccccc23)C(=O)O)c2oc3ccccc3c2n1 > 76.9 µM
Cc1ccc(-c2noc(CCC(=O)NCc3ccc4c(c3)OCO4)n2)cc1 > 76.9 µM
Cc1c(NS(=O)(=O)c2ccc3c(c2)CCN3C(=O)C2CC2)c(=O)n(-c2ccccc2)n1C > 76.9 µM
CCCCCn1c(=O)[nH]c2cc(C(=O)NCCCN3CCCCC3)ccc2c1=O > 76.9 µM
Cc1ccc(C(CC(=O)c2ccco2)SCCO)cc1 (configuration not stated) > 76.9 µM
Cn1c2c(c(=O)n(C)c1=O)CN(Cc1ccc3c(c1)OCO3)CN2 > 76.9 µM
COc1cccc(C(=O)n2cnnc2N)c1OC > 76.9 µM
Cc1c(C#N)c(SCC(N)=O)nc2c1CCCC2 > 76.9 µM
O=C(OCc1nnc(-c2ccccc2)o1)c1ccc2ccccc2n1 > 76.9 µM
CC1CCN(CCc2nc3cc(NS(=O)(=O)c4ccccc4)ccc3n2C)CC1 > 76.9 µM
O=C(Cn1cccc1C(=O)c1ccccc1)NCc1ccc2c(c1)OCO2 > 76.9 µM
Cc1ccc(-c2nc(C#N)c(NCCc3ccccn3)o2)cc1 > 76.9 µM
COc1ccccc1NC(=O)C1=C(C)Nc2nnnn2C1c1ccncc1 (configuration not stated)
Cc1cc(S(=O)(=O)N2CCCC2)ccc1OCC(=O)N1CCOCC1 > 76.9 µM
COc1ccc(-c2csc(/C(C#N)=C(\O)CSc3nccn3C)n2)cc1OC > 76.9 µM
N#C[C@@H]1[C@@H]2C(=O)N(c3ccc4c(c3)OCCO4)C(=O)[C@@H]2C2c3ccccc3C=CN21 (some centres not stated) > 76.9 µM
Cc1ccc(-n2c(=O)[nH]c3c(C(N)=O)nc(CC(C)C)nc32)cc1 > 76.9 µM
Cc1cccc(NC(=O)COc2ccccc2)c1 > 76.9 µM
CCOC(=O)c1[nH]c2ccc(OC)cc2c1NC(=O)C(C)N1CCSCC1 (configuration not stated) > 76.9 µM
O=C(CN1C(=O)c2ccccc2S1(=O)=O)N1CCN(Cc2ccc3c(c2)OCO3)CC1 > 76.9 µM
CCc1c(C)sc(NC(=O)c2ccco2)c1C(=O)N1CCCCC1 > 76.9 µM
CCCN(Cc1cc2ccc(C)cc2[nH]c1=O)C(=O)c1ccccn1 > 76.9 µM
Cc1cc(=O)oc(C)c1C(=O)N1CCN(C(c2ccccc2)c2ccccc2)CC1 > 76.9 µM
O=S1(=O)CCC(NCC2CCCO2)C1 (configuration not stated) > 76.9 µM
COc1ccc(S(=O)(=O)NCCC(=O)NC2CCCCCCC2)cc1 > 76.9 µM
COC(=O)CSc1nnc(CCc2nc3ccccc3[nH]2)n1C > 76.9 µM
COc1ccc(OCCSc2nnnn2C2CCCCC2)cc1 > 76.9 µM
CCOc1ccc(N2C(=O)CCC2=O)cc1 > 76.9 µM
CCN(CCCNC(=O)C1CCN(S(=O)(=O)c2cccc3nonc23)CC1)Cc1ccccc1 > 76.9 µM
COc1ccccc1OCC(O)Cn1c(=N)n(CCN2CCCCC2)c2ccccc21 (configuration not stated) > 76.9 µM
COc1ccc(Cc2nc(-c3ccccc3)no2)cc1 > 76.9 µM
CCN(CC)S(=O)(=O)c1cccc(C(=O)Nc2ccc(C#N)cc2)c1 > 76.9 µM
Cc1cc(NC(=O)c2ccccc2)ncc1NC(=O)c1ccco1 > 76.9 µM
COc1ccc(C2C(C(=O)NC(C)C)c3ccccc3C(=O)N2C)cc1OC (configuration not stated) > 76.9 µM
COc1cc(NC(=O)CCc2ccccc2)nc(OC)n1 > 76.9 µM
O=C(C1CCN(S(=O)(=O)N2CCC3(CC2)OCCO3)CC1)N1CCN(Cc2ccccc2)CC1 > 76.9 µM
Cc1ccccc1OCC(=O)Nc1cccc(N(C)S(C)(=O)=O)c1 > 76.9 µM
CCCn1c(SCC(=O)NCc2ccco2)nnc1C(C)C > 76.9 µM
CCOC(=O)N1CCN(c2nc(C)c3c(n2)CC(C)CC3=O)CC1 (configuration not stated) > 76.9 µM
CC1CCN(C(=O)c2scc3c2OCCO3)CC1 > 76.9 µM
Cc1nc2oc3ccccc3c(=O)c2c(=O)n1Cc1ccccc1 > 76.9 µM
COCCNC(=O)C(c1ccc(C)o1)N(Cc1ccccc1)C(=O)Cn1nnc2ccccc21 (configuration not stated) > 76.9 µM
CN1CC(=O)N(C)c2nc(Br)n(C)c2C1=O > 76.9 µM
CC1CCCN(Cc2nc3c(c(=O)n(C)c(=O)n3C)n2CCc2ccccc2)C1 (configuration not stated) > 76.9 µM
COc1ccccc1NC(=O)Cn1nnc(C(=O)Nc2ccccc2)c1N > 76.9 µM
CC1CC(C)CN(CCCn2c(=S)[nH]c3ccccc3c2=O)C1 (configuration not stated) > 76.9 µM
O=C(CSc1nnc(-c2ccc(Br)cc2)n1C1CCCCC1)N1CCCC1 > 76.9 µM
Cc1ccc(-c2nnn(CC(=O)N(CC(=O)NCC3CCCO3)c3ccccc3)n2)o1 (configuration not stated) > 76.9 µM
CC(C)(C)NC(=O)CSc1nnnn1C(C)(C)C > 76.9 µM
Cc1ccnc(Nc2nc(-c3c(C)nc4sccn34)cs2)c1 > 76.9 µM
CCCN1C2CCCC1CC(NC(=O)c1ccccc1)C2 (configuration not stated) > 76.9 µM
COc1ccc(-c2cc(C(=O)NC(C(=O)O)C(C)C)c(C)o2)cc1OC (configuration not stated) > 76.9 µM
CC1CCCN(C/C(O)=C(\C#N)c2nc3ccccc3[nH]2)C1 (configuration not stated) > 76.9 µM
OCC#CCSc1nnc(-c2ccc(Br)cc2)o1 > 76.9 µM
O=C(NCc1ccc(F)cc1)C1C2C=CC3(CN(Cc4cccnc4)C(=O)C13)O2 (configuration not stated) > 76.9 µM
CCOC(=O)C1=C(C)N=C2SC(C)C(=O)N2C1c1ccc(OCC)c(OCC)c1 (configuration not stated) > 76.9 µM
